# Measurements reported in PubChem BioAssay AID651820 (National Center for Advancing Translational Sciences (NCATS), 2012).
# The campaign covered roughly 340,000 compounds. About 12,000 (3.5%) were called active. Inconclusive means that the source gave no clear call. Such entries were picked first, then a sample of the others. Calls follow the shape of the dose curve; as a rule, active = well fitted inhibition curve with a large enough effect; inconclusive = small, poorly fitted or top-dose-only effect, or another doubt; inactive = no such curve, though single readings can be large or run the other way. Potencies of inconclusive entries are left out as doubtful fits.
# Test: qHTS Assay for Inhibitors of Hepatitis C Virus (HCV)
# Conditions: Huh7.5.1 HCVcc-Cre (HCVcc is cell-culture hepatitis C virus) infection, luciferase reporter, 44 h; series mostly up to 41.8 µM
# Summary of the method: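 Seed cells (1,000/well) for 4 h; treat with compound and infect with HCVcc-Cre, moi about 0.5. Incubate 44 h, then detect luciferase activity.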
# Potency is read from the fitted curve at half-maximal effect; tags tell the direction and shape of the fitted curve.
row,Compound,Potency
1,O=C(C1=C[C@@H](c2ccc3c(c2)OCO3)C[C@@H](OCCCCO)O1)N1CCOCC1,inactive
2,Cc1ccc(-c2ccc(S(=O)(=O)NCc3ccco3)cc2)cc1,inactive
3,CC(C)c1ccc2c(c1)C1(NN=C(c3ccccc3)S1)C(=O)N2 (configuration not stated),"inconclusive [inhibitor, partial curve]"
4,CCCCCN(C(=O)CCC(=O)OCc1cccc(Br)c1)c1c(N)n(CCCC)c(=O)[nH]c1=O,"inconclusive [inhibitor, partial curve]"
5,COc1ccc(COc2cc(-c3cccc(OC)c3)nc3ccc(NC(=O)c4ccccc4)cc23)cc1,"inconclusive [inhibitor, full curve]"
6,CCN(Cc1ccc(OC)c(F)c1)C(=O)CCl,"inconclusive [inhibitor, single point]"
7,N#C/C(=C\c1ccc(Cl)cc1)c1nc(-c2ccco2)cs1,"inconclusive [inhibitor, single point]"
8,CCc1nnc2c(NCCc3ccc(OC)c(OC)c3)nc3ccccc3n12,"inconclusive [inhibitor, single point]"
9,Cc1cc(C(=O)CSc2nnc(C3CC3)n2C2CC2)c(C)n1C(C)C,inactive
10,COc1ccc2nc3ccccc3nc2c1NC(=O)c1ccc(Cl)cc1,"inconclusive [inhibitor, partial curve, poor fit]"
11,CC(=O)Nc1cccc(NC(=O)/C=C/c2ccc(S(=O)(=O)N3CCOCC3)cc2)c1,inactive
12,CC(=O)N1CCN(c2ccc(NCc3cccs3)cc2)CC1,inactive
13,Cc1ccc(NC(=O)C2CCCN(S(=O)(=O)c3c(C)noc3C)C2)cc1F (configuration not stated),inactive
14,CCN(CC)CCOC(=O)C(c1ccccc1)C1CCCCC1 (configuration not stated),"inconclusive [inhibitor, full curve]"
15,COc1ccc(NC(=O)c2cc(C3CC3)nc3c2cnn3C(C)C)cc1OC,active: 10 µM
16,COc1ccc(-c2csc(NC(=O)c3ccccc3S(C)(=O)=O)n2)cc1,"inconclusive [inhibitor, partial curve]"
17,Cc1ccc2cc(C#N)c(SCC(=O)N3CCCC3)nc2c1,inactive
18,Cc1ccc(NC(=O)CCNS(=O)(=O)c2ccc3[nH]c(=O)oc3c2)cc1C,inactive
19,S=C(NCCCN1CCOCC1)Nc1ccc(Nc2ccccc2)cc1,"inconclusive [inhibitor, partial curve]"
20,Cc1ccc(-c2[nH]ncc2C(=O)c2ccc(Br)cc2)c(O)c1,inactive
21,Cc1ccc(-c2nc(-c3cccnc3)sc2CC(=O)Nc2ccc(C)c(Cl)c2)cc1,"inconclusive [inhibitor, single point]"
22,COc1cc(Cl)c(CN2CCC(CCC(=O)NC3CC3)CC2)cc1OC,inactive
23,COc1ccc(NC(=O)Nc2ccc3c(c2)C(=O)N([C@H](C)CO)C[C@H](C)[C@@H](CN(C)C(=O)Nc2ccc4c(c2)OCO4)O3)cc1,inactive
24,COc1ccc(CCNCC(=O)Nc2ccc(C)c(S(=O)(=O)N(C)C)c2)cc1,"inconclusive [inhibitor, partial curve]"

row,Compound,Potency
1,O=C(Nc1ccccc1C(=O)NCc1cccnc1)c1ccco1,"inconclusive [inhibitor, single point]"
2,CCCc1nc2ccccc2c(=O)n1/N=C/c1c(C)[nH]n(-c2ccc(C)cc2)c1=O,inactive
3,O=C(Cn1c(=O)sc2ccccc21)Nc1ccccc1,inactive
4,O=C(CNC(=O)c1ccc(Br)o1)Nc1cccc(-c2cnc3ccccc3n2)c1,"inconclusive [inhibitor, single point]"
5,COc1ccccc1CNC(=O)C(C)n1nc(C)n2c(cc3occc32)c1=O (configuration not stated),inactive
6,CN1CCN(c2ccc([N+](=O)[O-])cc2/C=N/NC(=O)c2ccc(F)cc2)CC1,"inconclusive [inhibitor, full curve]"
7,CCOc1cccc(CNc2ccc(O)cc2)c1OCc1ccccc1Cl,"inconclusive [inhibitor, single point]"
8,Cc1ccc(C)c(S(=O)(=O)N2CCN(C(=O)CNC(=O)c3ccc4ccccc4c3)CC2)c1,"inconclusive [inhibitor, single point]"
9,COc1cc(/C=C(/C#N)c2ccc(C)cc2)ccc1Oc1ccc([N+](=O)[O-])cn1,active: 10 µM
10,COc1ccc(NS(=O)(=O)c2cc(NC(=O)c3ccco3)ccc2N2CCCC2)cc1,active: 10 µM
11,CCCS(=O)(=O)c1c(S(=O)(=O)CCC)c2c(N)cccn2c1C(=O)c1ccccc1,inactive
12,CC(=O)c1c(C)[nH]c(C(=O)OCC(=O)Nc2ncc(Cl)c(C)c2Cl)c1C,"inconclusive [inhibitor, single point]"
13,COc1ccc(-c2cc(C(F)(F)F)nc(SCCC(=O)Nc3cc(C)on3)n2)cc1,"inconclusive [inhibitor, full curve, poor fit]"
14,CCCn1nc2cc(C(=O)NCc3ccccc3)ccc2c1OCC,"inconclusive [inhibitor, partial curve]"
15,COC1CC(C)C(OC)c2cc(O)cc(c2O)NC(=O)C(C)=CC=CC(C)C(OC(N)=O)C(C)=CC(C)C1OC (configuration not stated),"inconclusive [inhibitor, full curve]"
16,CN(C)C(C)(C)C#CCCCCC#CC(C)(C)N(C)C,"inconclusive [inhibitor, full curve]"
17,C=CCn1c(NCc2c[nH]c3ccccc23)nc2ccccc21,"inconclusive [inhibitor, full curve]"
18,CCCC(=O)N1CCC(CCC(=O)NC2CC2)CC1,"inconclusive [inhibitor, single point]"
19,Cc1ccc(C2CC(c3ccc(Cl)cc3)=NNC2=O)cc1 (configuration not stated),"inconclusive [inhibitor, partial curve, poor fit]"
20,NC(=O)c1nsc(C(=O)N(c2ccccc2)C(C(=O)NCC2CCCO2)c2ccc(F)cc2)c1N (configuration not stated),inactive
21,CNC(=S)Nc1cccc(C(C)=O)c1,inactive
22,S=C(Nc1ccccc1)Nc1nc2ccccc2n1CCOc1ccc(Cl)cc1,active: 10 µM
23,COc1cccc(NC(=O)Nc2ccc3nsnc3c2)c1,"inconclusive [inhibitor, partial curve]"
24,COc1ccc(S(=O)(=O)Nc2ccc3c(c2)n(C)c(=O)n3C)cc1F,"inconclusive [inhibitor, partial curve]"

row,Compound,Potency
1,CCn1nnc(NC(=O)COc2cc(C)ccc2C(C)C)n1,"inconclusive [inhibitor, single point]"
2,CSc1nc2sc3c(c2c(=O)n1C)CCC3,"inconclusive [inhibitor, single point]"
3,COc1ccc(N(CC(=O)NCc2ccccc2OC)S(=O)(=O)c2ccc(C)cc2)cc1Cl,inactive
4,CCN(CC)CCn1nc2c3c(cccc3c1=O)-c1ccccc1-2,active: 10 µM
5,Cc1ccc(C(=O)NN(C)c2nc3ccccc3nc2C(F)(F)F)cc1,"inconclusive [inhibitor, full curve, poor fit]"
6,COc1ccc(CNCCC(c2ccc(OC)cc2)c2ccccc2OC)cc1 (configuration not stated),"inconclusive [inhibitor, single point]"
7,CN(Cc1nc2ccccc2c(=O)[nH]1)C(=O)c1cc(C2CC2)nn1-c1ccccc1,"inconclusive [inhibitor, single point]"
8,O=C(COC(=O)/C=C/c1ccc(Br)o1)NC1CCCCC1,inactive
9,CCOC(=O)c1ccc(S(=O)(=O)N2CCC(C(=O)OCC)CC2)cc1,"inconclusive [inhibitor, partial curve]"
10,COn1c(-c2ccc(Cl)cc2)nc2ccc(Cl)cc21,"inconclusive [inhibitor, single point]"
11,CCN(Cc1ccccc1)C(c1cccc(C#N)c1)c1nnnn1C(C)(C)C (configuration not stated),"inconclusive [inhibitor, partial curve]"
12,CN(C)S(=O)(=O)c1ccc(/C(O)=C2/C(=O)C(=O)N(CCN3CCCCC3)C2c2cccnc2)cc1 (configuration not stated),inactive
13,CCC(C)NC(=O)Nc1ccc(F)c(Cl)c1 (configuration not stated),inactive
14,N#CC1=C2SCN(c3ccccc3)CN2C(=O)CC1c1cccs1 (configuration not stated),"inconclusive [inhibitor, partial curve]"
15,CNC(=O)C(=O)NCC1OCCCN1S(=O)(=O)c1ccc(F)cc1C (configuration not stated),"inconclusive [inhibitor, single point]"
16,c1ccc(CCn2c(C3CC3)nc3ccccc32)cc1,inactive
17,N#Cc1ccc(OCc2cccc(S(=O)(=O)N3CCOCC3)c2)cc1,"inconclusive [inhibitor, single point]"
18,COc1cc(/C=C/c2ccc3cccc([N+](=O)[O-])c3n2)ccc1OCC#N,active: 4.47 µM
19,CCNC(=S)Nc1cccc([N+](=O)[O-])c1,inactive
20,CC(C)c1ccc(NC(=O)COc2ccc(F)cc2C(=O)c2cnn(-c3ccccc3)c2)cc1,"inconclusive [inhibitor, partial curve]"
21,CCCc1c(C)c2cccc(C)c2[nH]c1=O,"inconclusive [inhibitor, partial curve, poor fit]"
22,CCOC(=O)NNc1ccccc1,inactive
23,O=C(Cc1ccc(Cl)cc1)Nc1ccc(S(=O)(=O)Nc2ncccn2)cc1,"inconclusive [inhibitor, single point]"
24,CC1Cc2ccccc2N1C(=O)CSc1nc2cc3c(cc2cc1C#N)OCO3 (configuration not stated),"inconclusive [inhibitor, full curve]"
